Results are given in words; binding and its absence hold for the method and conditions named. For part of these data: In cells and extracts the contact can be indirect. Some binding calls cover weakened binding; strength is not graded here. For part of these data: Where a sequence is shown, tags or fusion partners need not be part of it. Blank lines part the entries; values can stand above or below the substance they belong to.
What was measured:
[1] = target: T1, neurofilament light subunit (NF-L) from mouse (mouse) (UniProt P08551); test: co-IP; MBP-Myo Va constructs (0.5-2 µg, equimolar) mixed 1 hr in 1X RIPA buffer with an excess of purified NF-L; NF-L antibody (NR-4 or 21.4) 1 hr at RT, protein A/G Sepharose; washed 3X with 500 mM NaCl, 0.1% NP40, 0.02% SDS; blotted with anti-MBP; only the target purified
T1 sequence: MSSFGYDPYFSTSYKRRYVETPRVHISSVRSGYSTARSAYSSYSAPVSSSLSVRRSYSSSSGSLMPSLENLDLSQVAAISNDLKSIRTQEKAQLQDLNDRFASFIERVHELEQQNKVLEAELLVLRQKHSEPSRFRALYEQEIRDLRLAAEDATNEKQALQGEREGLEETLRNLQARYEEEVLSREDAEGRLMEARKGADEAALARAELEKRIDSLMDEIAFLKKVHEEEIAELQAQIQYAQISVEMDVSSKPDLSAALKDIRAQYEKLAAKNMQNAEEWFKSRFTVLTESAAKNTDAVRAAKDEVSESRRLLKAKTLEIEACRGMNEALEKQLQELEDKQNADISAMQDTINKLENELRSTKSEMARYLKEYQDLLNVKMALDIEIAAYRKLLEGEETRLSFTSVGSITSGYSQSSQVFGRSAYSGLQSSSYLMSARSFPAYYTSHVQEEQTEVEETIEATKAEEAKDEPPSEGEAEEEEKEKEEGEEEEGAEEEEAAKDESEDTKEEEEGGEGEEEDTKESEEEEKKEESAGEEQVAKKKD

Sequences of proteins named here, by UniProt entry; tags and fusion partners are left off. A change or cut given only in a name is not applied to a line headed by its entry. Residues count along the entry.
UniProt P48670: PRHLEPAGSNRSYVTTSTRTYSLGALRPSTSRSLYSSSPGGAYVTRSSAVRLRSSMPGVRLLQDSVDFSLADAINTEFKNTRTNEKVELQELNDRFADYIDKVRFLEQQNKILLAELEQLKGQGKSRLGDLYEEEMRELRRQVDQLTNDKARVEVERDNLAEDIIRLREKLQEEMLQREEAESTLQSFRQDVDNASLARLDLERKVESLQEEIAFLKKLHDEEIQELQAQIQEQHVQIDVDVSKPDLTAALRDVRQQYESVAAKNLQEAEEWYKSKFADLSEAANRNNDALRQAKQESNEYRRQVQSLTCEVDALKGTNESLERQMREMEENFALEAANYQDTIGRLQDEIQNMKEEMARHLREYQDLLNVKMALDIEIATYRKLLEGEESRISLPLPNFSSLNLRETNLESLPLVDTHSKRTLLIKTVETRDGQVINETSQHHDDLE
UniProt P03995: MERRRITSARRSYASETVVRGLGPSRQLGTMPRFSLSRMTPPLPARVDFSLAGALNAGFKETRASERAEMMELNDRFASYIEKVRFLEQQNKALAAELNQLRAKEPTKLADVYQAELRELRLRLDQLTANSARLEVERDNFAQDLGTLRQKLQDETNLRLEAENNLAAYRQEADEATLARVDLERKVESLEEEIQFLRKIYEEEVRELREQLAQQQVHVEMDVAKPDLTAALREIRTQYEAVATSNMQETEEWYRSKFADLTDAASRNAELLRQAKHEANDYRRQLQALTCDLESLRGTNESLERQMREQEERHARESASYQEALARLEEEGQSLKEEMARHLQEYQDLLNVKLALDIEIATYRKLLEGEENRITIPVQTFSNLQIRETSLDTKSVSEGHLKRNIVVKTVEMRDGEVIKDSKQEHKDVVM
UniProt P15331: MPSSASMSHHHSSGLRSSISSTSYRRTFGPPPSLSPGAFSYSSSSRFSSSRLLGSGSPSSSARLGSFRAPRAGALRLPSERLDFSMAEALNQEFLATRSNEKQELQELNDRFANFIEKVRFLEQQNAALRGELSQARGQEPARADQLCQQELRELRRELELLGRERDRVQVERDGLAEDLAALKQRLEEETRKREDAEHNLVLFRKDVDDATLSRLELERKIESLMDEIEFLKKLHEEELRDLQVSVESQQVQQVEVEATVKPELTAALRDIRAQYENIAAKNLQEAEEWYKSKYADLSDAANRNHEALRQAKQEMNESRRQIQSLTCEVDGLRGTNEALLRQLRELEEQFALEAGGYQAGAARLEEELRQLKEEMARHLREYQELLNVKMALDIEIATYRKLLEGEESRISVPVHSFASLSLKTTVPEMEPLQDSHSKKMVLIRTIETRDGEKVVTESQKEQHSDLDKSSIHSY
MBP-Myo Va head domain (41-505) (Q99104, residues 41-505): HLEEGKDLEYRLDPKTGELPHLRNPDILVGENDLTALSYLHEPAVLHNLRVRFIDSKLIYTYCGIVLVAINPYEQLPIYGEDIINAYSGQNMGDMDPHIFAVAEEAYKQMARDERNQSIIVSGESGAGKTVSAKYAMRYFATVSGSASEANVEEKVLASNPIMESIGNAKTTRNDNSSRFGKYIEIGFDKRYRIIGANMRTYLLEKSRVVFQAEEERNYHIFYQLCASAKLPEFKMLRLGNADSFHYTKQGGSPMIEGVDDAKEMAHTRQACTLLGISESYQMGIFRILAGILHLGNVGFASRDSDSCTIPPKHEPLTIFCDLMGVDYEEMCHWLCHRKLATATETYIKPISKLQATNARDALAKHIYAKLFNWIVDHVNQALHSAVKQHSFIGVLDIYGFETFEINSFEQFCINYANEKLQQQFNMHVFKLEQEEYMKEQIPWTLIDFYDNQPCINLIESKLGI
MBP-Myo Va N-terminal motor domain (41-326) (Q99104, residues 41-326): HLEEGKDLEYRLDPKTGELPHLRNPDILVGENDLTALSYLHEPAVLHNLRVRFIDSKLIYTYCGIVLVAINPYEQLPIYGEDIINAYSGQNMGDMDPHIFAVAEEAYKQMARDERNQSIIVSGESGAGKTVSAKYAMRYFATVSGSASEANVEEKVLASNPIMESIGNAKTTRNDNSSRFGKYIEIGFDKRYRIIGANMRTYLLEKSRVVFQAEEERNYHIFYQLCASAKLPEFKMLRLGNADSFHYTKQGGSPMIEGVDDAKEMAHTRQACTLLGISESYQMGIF
MBP-Myo Va C-terminal head domain (327-505) (Q99104, residues 327-505): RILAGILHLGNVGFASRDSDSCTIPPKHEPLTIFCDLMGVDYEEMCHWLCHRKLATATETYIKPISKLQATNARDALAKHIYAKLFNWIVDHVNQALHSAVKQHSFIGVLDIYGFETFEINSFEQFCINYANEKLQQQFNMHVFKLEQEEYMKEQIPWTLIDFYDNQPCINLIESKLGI
UniProt Q02440: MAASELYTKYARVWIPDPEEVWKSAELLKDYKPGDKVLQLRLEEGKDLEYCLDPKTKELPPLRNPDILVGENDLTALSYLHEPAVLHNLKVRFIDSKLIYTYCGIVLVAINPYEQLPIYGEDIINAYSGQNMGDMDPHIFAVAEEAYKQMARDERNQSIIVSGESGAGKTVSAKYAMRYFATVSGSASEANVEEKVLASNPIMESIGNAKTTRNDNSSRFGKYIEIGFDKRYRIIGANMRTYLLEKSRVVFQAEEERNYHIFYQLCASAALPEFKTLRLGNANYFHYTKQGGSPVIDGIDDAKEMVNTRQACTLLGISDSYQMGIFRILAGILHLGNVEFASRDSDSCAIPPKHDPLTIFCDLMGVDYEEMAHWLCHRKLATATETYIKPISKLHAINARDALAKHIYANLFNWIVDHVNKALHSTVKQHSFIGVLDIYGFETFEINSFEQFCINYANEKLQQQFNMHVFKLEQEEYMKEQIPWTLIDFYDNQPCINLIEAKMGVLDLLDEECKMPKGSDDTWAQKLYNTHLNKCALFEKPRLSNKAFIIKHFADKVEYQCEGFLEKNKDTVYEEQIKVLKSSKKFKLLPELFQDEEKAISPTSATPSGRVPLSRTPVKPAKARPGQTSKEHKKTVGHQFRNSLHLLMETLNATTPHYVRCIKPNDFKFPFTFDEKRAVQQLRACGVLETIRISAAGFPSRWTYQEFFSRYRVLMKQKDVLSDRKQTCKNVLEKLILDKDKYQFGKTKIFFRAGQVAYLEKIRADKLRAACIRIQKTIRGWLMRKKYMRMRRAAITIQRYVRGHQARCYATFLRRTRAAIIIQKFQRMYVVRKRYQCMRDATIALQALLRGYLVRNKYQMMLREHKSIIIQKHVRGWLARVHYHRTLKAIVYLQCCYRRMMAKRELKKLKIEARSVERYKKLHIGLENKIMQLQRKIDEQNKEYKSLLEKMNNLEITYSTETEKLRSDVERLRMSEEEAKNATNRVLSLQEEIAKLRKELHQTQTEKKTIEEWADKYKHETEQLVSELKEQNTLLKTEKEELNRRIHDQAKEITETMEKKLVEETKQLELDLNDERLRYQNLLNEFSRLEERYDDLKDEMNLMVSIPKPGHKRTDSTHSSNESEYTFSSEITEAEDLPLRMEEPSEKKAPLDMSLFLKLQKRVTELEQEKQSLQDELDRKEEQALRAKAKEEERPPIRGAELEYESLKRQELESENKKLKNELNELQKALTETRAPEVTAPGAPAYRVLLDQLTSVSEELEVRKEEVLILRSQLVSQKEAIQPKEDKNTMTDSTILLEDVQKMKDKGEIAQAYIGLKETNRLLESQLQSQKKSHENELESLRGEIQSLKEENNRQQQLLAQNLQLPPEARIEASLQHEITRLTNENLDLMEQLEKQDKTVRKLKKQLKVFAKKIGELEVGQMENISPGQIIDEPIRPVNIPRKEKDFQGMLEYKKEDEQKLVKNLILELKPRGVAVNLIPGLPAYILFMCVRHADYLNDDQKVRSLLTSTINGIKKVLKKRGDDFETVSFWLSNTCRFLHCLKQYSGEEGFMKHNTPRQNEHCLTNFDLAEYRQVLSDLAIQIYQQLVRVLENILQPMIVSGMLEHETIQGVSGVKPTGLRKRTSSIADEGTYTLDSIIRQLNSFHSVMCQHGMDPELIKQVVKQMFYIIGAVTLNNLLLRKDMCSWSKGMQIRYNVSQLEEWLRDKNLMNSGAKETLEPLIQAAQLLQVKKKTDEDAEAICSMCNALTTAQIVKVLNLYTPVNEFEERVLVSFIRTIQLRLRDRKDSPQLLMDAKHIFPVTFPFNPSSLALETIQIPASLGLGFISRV

[2] = target: T1, neurofilament light subunit (NF-L) from mouse (mouse); test: far-Western, overlay or dot blot; blot overlay: mouse cytoskeletal fractions (brain, optic nerve, spinal cord, sciatic nerve) on 7% SDS gels, transferred to nitrocellulose, blocked with 3% milk, incubated with MBP-tagged Myo Va constructs (equimolar) overnight at 4°C, detected with anti-MBP-HRP
[3] = target: T1, neurofilament light subunit (NF-L) from mouse (mouse); test: far-Western, overlay or dot blot; blot overlay: purified NF-L, actin, vimentin and desmin on SDS gels, transferred to nitrocellulose, incubated with MBP-Myo Va (41-326) overnight at 4°C, detected with anti-MBP-HRP; only the target purified
[4] = target: vimentin (hamster) (hamster) (UniProt P48670); test: as above
[5] = target: T2, Myc-tagged NF-L N-terminal rod domain (94-243) (mouse) (UniProt P08551); test: co-IP; MBP-Myo Va 41-326 mixed in 1X RIPA buffer with Myc-tagged NF-L constructs; precipitated with Myc antibody 9E10, protein A/G Sepharose; high salt washes; blotted with anti-MBP and anti-Myc; in Fig. 3C also with 5 mM magnesium and/or calcium
T2 sequence: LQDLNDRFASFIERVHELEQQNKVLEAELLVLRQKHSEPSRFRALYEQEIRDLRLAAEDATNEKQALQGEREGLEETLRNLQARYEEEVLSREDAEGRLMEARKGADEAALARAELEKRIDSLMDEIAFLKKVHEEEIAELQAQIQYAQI

[6] = target: T3, Myc-tagged NF-L head + rod (1-243) (mouse) (UniProt P08551); test: as above
T3 sequence: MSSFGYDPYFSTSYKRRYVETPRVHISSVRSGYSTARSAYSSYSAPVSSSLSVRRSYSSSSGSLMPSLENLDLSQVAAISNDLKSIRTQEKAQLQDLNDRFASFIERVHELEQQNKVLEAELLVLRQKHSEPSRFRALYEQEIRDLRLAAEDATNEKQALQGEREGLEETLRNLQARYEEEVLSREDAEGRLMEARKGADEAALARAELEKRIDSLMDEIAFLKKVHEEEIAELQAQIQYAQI

[7] = target: T4, Myc-tagged full length NF-L (1-543) (mouse) (UniProt P08551); test: as above
T4 sequence: T1 sequence

[8] = target: GFAP (mouse (endogenous in optic nerve, spinal cord and brain)) (UniProt P03995); test: far-Western, overlay or dot blot; blot overlay: mouse cytoskeletal fractions (brain, optic nerve, spinal cord, sciatic nerve) on 7% SDS gels, transferred to nitrocellulose, blocked with 3% milk, incubated with MBP-tagged Myo Va constructs (equimolar) overnight at 4°C, detected with anti-MBP-HRP
[9] = target: peripherin (mouse (endogenous in optic nerve and sciatic nerve)) (UniProt P15331); test: as above
[10] = target: T5, α-internexin (mouse (endogenous in optic nerve and spinal cord)) (UniProt P46660); test: as above
T5 sequence: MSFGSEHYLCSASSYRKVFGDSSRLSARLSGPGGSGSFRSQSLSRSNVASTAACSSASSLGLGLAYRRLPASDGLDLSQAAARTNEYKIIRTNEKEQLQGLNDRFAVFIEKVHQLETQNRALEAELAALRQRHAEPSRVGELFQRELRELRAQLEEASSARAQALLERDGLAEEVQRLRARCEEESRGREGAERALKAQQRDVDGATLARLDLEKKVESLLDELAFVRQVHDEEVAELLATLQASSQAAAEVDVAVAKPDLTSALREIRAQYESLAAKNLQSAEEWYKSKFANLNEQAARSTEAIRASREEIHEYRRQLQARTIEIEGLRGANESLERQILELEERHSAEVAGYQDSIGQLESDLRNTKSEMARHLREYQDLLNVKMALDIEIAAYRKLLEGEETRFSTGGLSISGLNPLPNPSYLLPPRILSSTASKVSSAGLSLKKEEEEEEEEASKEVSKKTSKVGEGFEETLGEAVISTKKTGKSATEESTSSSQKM

[11] = target: T1, neurofilament light subunit (NF-L) from mouse (mouse); test: co-IP; data not shown; hexa-His-tagged Myo Va tail constructs and the Myo Va head with full-length NF-L
[12] = target: T1, neurofilament light subunit (NF-L) from mouse (mouse); test: co-IP; specificity control, data not shown at least in part; NF-L with MBP-Myo Va-Head (5-752), purified MBP alone or BSA

Substance: MBP-Myo Va N-terminal motor domain (41-326) (from UniProt Q99104 41-326) (domain or fragment)
- binding [3]: binds
- binding [4]: binds
- binding [5]: binds
- binding [6]: binds
- binding [7]: binds
- binding [1]: binds
- binding [8]: binds
- binding [2]: binds
- binding [9]: binds
- binding [10]: binds

Substance: MBP-Myo Va head domain (5-752) (from UniProt Q02440 5-752) (domain or fragment)
- binding [11]: binds
- binding [12]: binds
- binding [1]: binds
- binding [8]: binds
- binding [2]: binds
- binding [9]: binds
- binding [10]: binds

Substance: MBP-Myo Va head domain (41-505) (from UniProt Q99104 41-505) (domain or fragment)
- binding [1]: binds
- binding [2]: binds

Substance: MBP-Myo Va neck region (800-881) (from UniProt Q02440 800-881) (domain or fragment)
- binding [1]: binds weakly

Substance: MBP-Myo Va tail domain (899-1830) (from UniProt Q02440 899-1829) (domain or fragment)
- binding [1]: no binding (tested: 0.5–2 µg)

Continued, values first:

- binding [1]: no binding (tested: 0.5–2 µg)
- binding [2]: no binding
Substance: MBP-Myo Va C-terminal head domain (327-505) (from UniProt Q99104 327-505) (domain or fragment)

- binding [1]: binds
Substance: MBP-Myo Va neck region (760-922) (from UniProt Q02440 760-922) (domain or fragment)

Source: PMC3040190
